Assay results taken from PubChem BioAssay AID588855 (National Center for Advancing Translational Sciences (NCATS), 2011).
The campaign covered roughly 410,000 compounds. About 5,000 (1.2%) were called active. This list was built around the results that the source calls inconclusive (neither active nor inactive); the mix of calls is not that of the screen. Calls follow the shape of the dose curve; as a rule, active = well fitted inhibition curve with a large enough effect; inconclusive = small, poorly fitted or top-dose-only effect; inactive = no such curve, though single readings can be large or run the other way. A potency beside an inconclusive call is a rough fit, not a confirmed value.

Assay: qHTS for Inhibitors of TGF-b; also: nearly all actives have a fitted effect of over 65% in size
Conditions: HepG2 CAGA-GFP TGF-b/SMAD3 reporter, GFP fluorescence, 18 h, TGF-beta stimulated, 500 pg/mL final; series mostly up to 46.1 µM
Method in brief: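 Cell-based qHTS in HEPG2 carrying a CAGA-GFP Smad reporter; compounds added before 500 pg/mL final TGF-beta, 18 h incubation at 37 degrees C, GFP fluorescence quantified per cell by imaging cytometry.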
Potency is read from the fitted curve at half-maximal effect; tags tell the direction and shape of the fitted curve.

Question: Which Potency does the source give for `CCn1c2ccc(C)cc2c2nnc(SCCN3CCCCC3)nc21` here?
Answer: inactive

Question: For `COc1ccc(C)cc1NS(=O)(=O)c1cc(Br)cc2c1N(C(C)=O)C(C)C2` (centres undefined), which Potency is on record?
Answer: inconclusive: 8.91 µM [inhibitor, partial curve, poor fit]

Question: For `Cc1c(C(=O)N(Cc2cccc(Cl)c2)Cc2ccco2)oc2ccccc12`, which Potency is on record?
Answer: inconclusive: 6.31 µM [inhibitor, partial curve, poor fit]

Question: Which Potency does the source give for `CCCc1ccc(-c2cc(C(=O)NCCc3ccc(S(N)(=O)=O)cc3)c3ccccc3n2)cc1` here?
Answer: inconclusive: 35.5 µM [inhibitor, single point]

Question: For `CC(=O)C[C@H]1c2cc(C(F)(F)F)ccc2S(=O)(=O)N1Cc1ccccc1`, which Potency is on record?
Answer: inactive

Question: Which Potency does the source give for `c1ccc2c(C3CCO3)cccc2c1` (centres undefined) here?
Answer: inconclusive: 2.24 µM [inhibitor, partial curve]

Question: Which Potency does the source give for `Cc1cccnc1C(NC(=O)C1CCN(Cc2ccc(Oc3ccccc3)cc2)CC1)c1ccccc1` (centres undefined) here?
Answer: inconclusive: 35.5 µM [inhibitor, single point]

Question: With `COc1cccc(NC2=CC(c3ccc(C(C)C)cc3)N(c3cccc(OC)c3)C2=O)c1` (centres undefined) as the molecule, how does the Potency read?
Answer: inactive

Question: With `CC1CN(Cc2ccccn2)CCC1=O` (centres undefined) as the molecule, how does the Potency read?
Answer: inconclusive: 6.31 µM [inhibitor, single point]

Question: With `O=C(COC(=O)C1COc2ccccc2O1)Nc1ccccc1OC(F)F` (centres undefined) as the molecule, how does the Potency read?
Answer: inactive

Question: For `Cc1cc(-c2n[nH]c(=S)n2/N=C/C(Cl)=C/c2ccccc2)n[nH]1`, which Potency is on record?
Answer: inconclusive: 35.5 µM [inhibitor, single point]

Question: For `O=C(c1cccc2ccccc12)N1CCN=C1SCc1ccc([N+](=O)[O-])cc1`, which Potency is on record?
Answer: inactive

Question: With `CN(CC(=O)Nc1ccccc1C(F)(F)F)C(=O)c1ccc(-c2ccc(Cl)cc2)o1` as the molecule, how does the Potency read?
Answer: inconclusive: 0.708 µM [inhibitor, full curve, poor fit]

Question: With `CC(=O)Oc1ccccc1C(=O)N(C1CCCCC1)C1CCCCC1` as the molecule, how does the Potency read?
Answer: inconclusive: 11.2 µM [inhibitor, single point]

Question: Which Potency does the source give for `O=S(=O)(c1ccc(-c2ccon2)s1)N1CCN(CCN2CCOCC2)CC1` here?
Answer: inactive

Question: Which Potency does the source give for `CCCCNC(=O)c1cc2nc(-c3ccc(OC)cc3)cc(C(F)(F)F)n2n1` here?
Answer: inactive

Question: For `CC(C)CC(N)c1csc(NC(=O)Nc2ccccc2C(C)(C)C)n1` (centres undefined), which Potency is on record?
Answer: active: 14.1 µM

Question: Which Potency does the source give for `Cc1cc(OCCN2CCN(S(=O)(=O)c3ccccc3F)CC2)ccc1C(C)C` here?
Answer: inconclusive: 35.5 µM [inhibitor, single point]

Question: With `O=C(NCC(=O)N1CCN(c2ccccc2)CC1)c1ccccc1` as the molecule, how does the Potency read?
Answer: inactive

Question: Which Potency does the source give for `CC(=O)Nc1ccc(NC(=O)CN2C(=O)CCc3cc(S(=O)(=O)N4CCCCC4)ccc32)cc1` here?
Answer: inactive

Question: For `CNS(=O)(=O)c1cc(N(C)S(=O)(=O)c2ccc(C)cc2)c(C)cc1C`, which Potency is on record?
Answer: inactive

Question: For `COc1cc(OC)c(NS(=O)(=O)c2cc3[nH]c(=O)c(=O)[nH]c3cc2C)cc1Cl`, which Potency is on record?
Answer: inactive

Question: For `O=c1oc2ccccc2c(Nc2cc3ccccc3cc2O)c1[N+](=O)[O-]`, which Potency is on record?
Answer: inconclusive: 15.8 µM [inhibitor, single point]

Question: With `Cc1ccc(Sc2ccc(CN3CCCCC3)cc2[N+](=O)[O-])cc1` as the molecule, how does the Potency read?
Answer: inactive

Question: Which Potency does the source give for `O=C(c1cccn1-c1nnc(N2CCCC2)s1)N1CCN(c2ccc(F)cc2)CC1` here?
Answer: inconclusive: 17.8 µM [inhibitor, single point]

Question: For `O=c1c2ccccc2nc2n1C(CSCc1ccc(Cl)cc1)CS2` (centres undefined), which Potency is on record?
Answer: inconclusive: 7.94 µM [inhibitor, partial curve, poor fit]

Question: For `COc1ccc(-c2nnc(SCC(=O)Nc3ccc(C)c(Cl)c3)nc2-c2ccc(OC)c(OC)c2)cc1OC`, which Potency is on record?
Answer: inconclusive: 35.5 µM [inhibitor, single point]

Question: With `Cc1ccc(C(=O)N[C@H](C(=O)OCC(=O)Nc2cccc(S(N)(=O)=O)c2)C(C)C)cc1` as the molecule, how does the Potency read?
Answer: inconclusive: 15.8 µM [inhibitor, partial curve, poor fit]

Question: For `CSCCC(NC(=O)c1ccccc1)C(=O)NCCCSc1ccccc1` (centres undefined), which Potency is on record?
Answer: inactive

Question: With `COc1cccc(/C=C/c2nc3ccccc3c(=O)n2-c2ccc(C)c(C)c2)c1OC` as the molecule, how does the Potency read?
Answer: inconclusive: 10 µM [inhibitor, partial curve, poor fit]

Question: Which Potency does the source give for `CCCS(=O)(=O)N1CCCC(c2nc(-c3ccc(OC)cc3)no2)C1` (centres undefined) here?
Answer: inactive

Question: Which Potency does the source give for `CCCCCCOc1ccc(NC(=O)CC2C(=O)N(CC)C(=S)N2Cc2ccco2)cc1` (centres undefined) here?
Answer: inconclusive: 20 µM [inhibitor, single point]

Question: With `O=C(O)c1c(Cl)c(Cl)c(Cl)c(Cl)c1C(=O)OCC1CCCO1` (centres undefined) as the molecule, how does the Potency read?
Answer: inconclusive: 35.5 µM [inhibitor, single point]

Question: Which Potency does the source give for `COc1ccc(NC(=O)CCS(=O)(=O)c2cc3c4c(c2)CCN4C(=O)CC3)cc1OC` here?
Answer: inconclusive: 35.5 µM [inhibitor, partial curve, poor fit]

Question: For `CCCN1CCC(=O)N(CCSc2ccccc2)CC1`, which Potency is on record?
Answer: inactive

Question: Which Potency does the source give for `CCC(C(=O)Nc1ccc(F)cc1F)n1nc(-c2ccccc2)c2c(c1=O)CCCC2` (centres undefined) here?
Answer: inconclusive: 35.5 µM [inhibitor, single point]

Question: Which Potency does the source give for `Cc1ccc(Cn2ccsc2=NC(=O)CCl)cc1` here?
Answer: inconclusive: 35.5 µM [inhibitor, single point]

Question: With `COc1ccc(CC(=O)OC(C)CN2CCOCC2)cc1` (centres undefined) as the molecule, how does the Potency read?
Answer: inconclusive: 0.501 µM [inhibitor, partial curve, poor fit]

Question: With `CCCCn1c(NS(=O)(=O)c2ccccc2)c(S(=O)(=O)c2ccc(C)cc2)c2nc3ccccc3nc21` as the molecule, how does the Potency read?
Answer: inconclusive: 35.5 µM [inhibitor, single point]

Question: With `O=S1(=O)CCO[C@H]2Cc3ccccc3[C@H]2N1Cc1ccc(F)cc1` as the molecule, how does the Potency read?
Answer: inconclusive: 35.5 µM [inhibitor, single point]

Question: For `COc1cccc(CNC(=O)CSc2nnc(C)c3c(C)n(-c4ccccc4)nc23)c1`, which Potency is on record?
Answer: inconclusive: 25.1 µM [inhibitor, single point]

Question: With `Cc1ccccc1Nc1c(-c2ccc(O)cc2)nc2c(C)cccn12` as the molecule, how does the Potency read?
Answer: inconclusive: 35.5 µM [inhibitor, single point]

Question: For `O=C(NNC(=S)NC1CC2CCC1C2)c1ccc(Cl)cc1` (centres undefined), which Potency is on record?
Answer: inconclusive: 15.8 µM [inhibitor, single point]

Question: For `COc1ccccc1-c1csc(C(C)(O)c2cccc(F)c2)n1` (centres undefined), which Potency is on record?
Answer: inconclusive: 35.5 µM [inhibitor, single point]
